Source: the supplement of paper PMC3334620
In all, about 33,000 sequences were measured (“E-score (-0.5 to 0.5)”: median about -0.054, highest 2% from about 0.35 on). Some of the results follow.

target: T1, Stb5 (UniProt P38699); assay: PBM E-score (8-mer binding enrichment) (E-score (-0.5 to 0.5)); higher = stronger / more preferred TF binding; most listed sequences are background and not binding sites; conditions: protein concentration: 200 nM; construct: GST-full length
T1 sequence: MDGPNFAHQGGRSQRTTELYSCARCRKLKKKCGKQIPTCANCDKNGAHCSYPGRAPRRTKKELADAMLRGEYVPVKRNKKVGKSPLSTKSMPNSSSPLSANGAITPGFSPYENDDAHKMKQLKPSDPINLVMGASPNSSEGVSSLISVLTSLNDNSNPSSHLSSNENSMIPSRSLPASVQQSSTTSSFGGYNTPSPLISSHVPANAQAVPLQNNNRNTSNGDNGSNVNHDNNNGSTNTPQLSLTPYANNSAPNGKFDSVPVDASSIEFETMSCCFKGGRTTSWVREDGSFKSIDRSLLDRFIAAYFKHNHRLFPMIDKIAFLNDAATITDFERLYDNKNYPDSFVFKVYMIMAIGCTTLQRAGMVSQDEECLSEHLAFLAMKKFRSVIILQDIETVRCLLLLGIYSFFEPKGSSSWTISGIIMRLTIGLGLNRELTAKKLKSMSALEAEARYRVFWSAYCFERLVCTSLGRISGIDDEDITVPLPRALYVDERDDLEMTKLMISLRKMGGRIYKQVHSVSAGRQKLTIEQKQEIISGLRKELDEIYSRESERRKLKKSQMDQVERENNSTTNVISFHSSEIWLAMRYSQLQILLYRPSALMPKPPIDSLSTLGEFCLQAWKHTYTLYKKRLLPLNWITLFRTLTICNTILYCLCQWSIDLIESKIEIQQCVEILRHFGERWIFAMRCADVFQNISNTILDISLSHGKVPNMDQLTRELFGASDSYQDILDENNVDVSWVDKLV
Outline: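 Full-length yeast transcription factors or their DNA-binding domains, GST-tagged and expressed with PURExpress, were applied at about 100-200 nM to universal all-10-mer Agilent arrays. These arrays had been made double-stranded by primer extension on fresh or once-stripped slides. Detection used fluorescent anti-GST, normalisation used masliner, and E-scores for ungapped eight-base words pooled with reverse complements came from the Universal PBM Analysis Suite.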

Sequence	PBM E-score
CAACGACA	-0.0514
CCTTAGTA	-0.0689
CAGACCTA	-0.311
AACTCCGC	0.438
ACCTTGAG	-0.22
ACCAGGGT	-0.165
CAGAATGG	-0.284
GGGTAAAC	0.0693
GAACAGTA	-0.166
GTTATACA	0.0285
CCGGCCCC	0.177
AACTGTAC	-0.233
GTGAATCA	-0.0539
TCAATGCA	-0.182
CTGATGTA	-0.0976
AGCGAATA	-0.136
AAATGTGT	-0.0313
AGACGTCT	-0.264
GAAAAACC	0.179
AAATTTAC	0.0373
CTCGGTGC	0.148
CGCACTGC	0.0549
AAGCGGGG	0.296
CGTTTAAG	0.105
ACGCAGGG	-0.183

Sequence	PBM E-score
AACCATCG	0.041
AGCTCAGC	-0.295
GGTACCGA	0.286
CACAGCTG	-0.0609
ATTGTACC	0.093
CTCACGGC	0.219
TACGCCGA	0.299
GGCACTTA	0.149
AAATAGGG	-0.109
AGTCTTAG	-0.256
CAGTTAGG	-0.226
GTATCTAA	-0.051
ACAAAAAC	0.112
GAACATAC	-0.0026
GGCAACAC	0.0891
AGGCAGTA	-0.205
TAACGAAA	0.039
TCCGTACA	0.219
ACGAGCGA	-0.338
GACTACAA	-0.147
CAGGAGGA	-0.0178
GAATGGCA	0.14
CGCAGATA	0.117
ATCTCGAC	-0.15
ACTCCTCG	-0.248

Sequence	PBM E-score
ACAGTGCG	-0.0748
GAGCGATA	-0.0773
AAGAATAT	0.0316
GCGCACAA	-0.0271
CTAGTTGC	-0.00724
AGTCGTTA	-0.191
CGTCCCCC	-0.00848
ACGGTGTA	0.348
ATAATCGG	0.16
GCGGAAAC	0.0966
ATACCATC	-0.0698
CCTTGTTA	-0.065
ATCTGATG	-0.0851
AACTCTTG	-0.358
AACACGGC	0.0701
AGTCTGGG	-0.291
ATAAGGCC	0.359
AGTCGATA	-0.208
AGATGGGA	-0.13
AGCAATGC	-0.169
AGACAGAT	-0.181
GCGACTCC	-0.106
TGTCATAA	-0.107
CTCTGCAA	-0.142
ATTCCTAA	-0.0714

Sequence	PBM E-score
AAACGAAG	-0.0773
CGACGTTC	-0.228
GATCAAAA	-0.093
GTGCGCCA	0.057
TGGCTAAA	-0.0391
GTAAAAAA	0.0255
GTCGAATA	-0.0352
CATAATGG	-0.0724
CACAGCGA	-0.0284
CCGTTACC	0.19
ATACGCTA	0.0695
AGACGGAG	0.215
GATATGAA	-0.0268
ATTATGTA	0.0338
ATCTTAGA	-0.0369
CACTAATG	-0.112
ACCAGTCT	-0.215
ACTCCCCC	-0.0621
ACTTGAAC	-0.0012
AAGTATAC	-0.0677
GTGACGCA	-0.214
ACGTCTGG	-0.218
ACCGGTTG	0.196
CGTCTCTC	-0.127
ACTCTTCA	-0.248

Sequence	PBM E-score
CTTGCGAA	0.0336
ATCGTCGG	0.252
ACTCGTTC	-0.148
ACTGCGTC	-0.0549
ACGGAAAT	0.306
GAACGCAA	-0.12
AACAAAAA	0.00198
AGGTTAGG	-0.0779
ACCCAGGT	-0.0611
CGCAACTC	-0.0694
GCGAGTCA	-0.043
TAGCACCA	0.126
CTCGCGCC	0.0233
AGCGACTA	-0.228
ACATCCTA	-0.0987
CAAGGCTA	-0.0878
ACTCTTTA	-0.166
GTGCGTGA	0.0894
AATGCGTA	0.0227
CCAGCGAC	-0.0365
AAAAGACC	0.247
CATGCAAC	-0.0686
AGTATAGG	-0.0702
CTAATAAC	-0.0301
ATGCCGCC	0.423

Sequence	PBM E-score
CTTGCATC	-0.146
GGTAAGAC	-0.0134
CTCAAATA	-0.067
ACAAGGCC	0.0517
CTGATTTA	0.16
CTTATACA	-0.0552
AGCTGGAT	-0.229
AAACTGGT	0.0745
GACACTGA	-0.0784
CCTTGAAC	-0.221
ACCAATCC	-0.0989
GAGTGTAC	-0.0578
GTAGCACA	-0.13
AGAGTTTA	-0.0332
CACGTCCG	0.12
AGAGACAT	-0.151
AGTGACGA	-0.191
CGGACGGA	0.322
GGGGTTAA	0.404
ATGTTCCG	0.249
AACCGGAT	0.161
ACAATTAG	-0.156
CCCGCACC	0.151
GATCATCC	0.122
AAGGGCCC	-0.0192

Sequence	PBM E-score
ATCACGCG	-0.0331
AAAAGGTG	-0.019
ATACTAGG	-0.0527
GATGATAA	0.0422
AACTGAGA	-0.153
ATTCAAGG	-0.326
GGGCAACA	-0.0751
CACAAGCA	-0.245
ACCAGCGT	-0.257
CCCAATCG	-0.061
AGCGTACA	-0.255
ATCATGGG	-0.0628
AGAAGTTA	-0.244
AGGCCCGG	0.275
CCCCCGAG	0.0373
CATCTTGC	-0.214
ACCGCAAT	0.252
CCACAGCA	-0.135
ATGCTAAA	-0.0141
CAAAAATC	-0.0309
AGCGTAAA	0.00432
AACACGCG	0.0168
